Biological target: the molecule itself
Assay: SiMPull with photobleaching step analysis

B1: HA-SNAP-mGluR5 (human metabotropic glutamate receptor 5) (receptor)
chain: QSSERRVVAHMPGDIIIGALFSVHHQPTVDKVHERKCGAVREQYGIQRVEAMLHTLERINSDPTLLPNITLGCEIRDSCWHSAVALEQSIEFIRDSLISSEEEEGLVRCVDGSSSSFRSKKPIVGVIGPGSSSVAIQVQNLLQLFNIPQIAYSATSMDLSDKTLFKYFMRVVPSDAQQARAMVDIVKRYNWTYVSAVHTEGNYGESGMEAFKDMSAKEGICIAHSYKIYSNAGEQSFDKLLKKLTSHLPKARVVACFCEGMTVRGLLMAMRRLGLAGEFLLLGSDGWADRYDVTDGYQREAVGGITIKLQSPDVKWFDDYYLKLRPETNHRNPWFQEFWQHRFQCRLEGFPQENSKYNKTCNSSLTLKTHHVQDSKMGFVINAIYSMAYGLHNMQMSLCPGYAGLCDAMKPIDGRKLLESLMKTNFTGVSGDTILFDENGDSPGRYEIMNFKEMGKDYFDYINVGSWDNGELKMDDDEVWSKKSNIIRSVCSEPCEKGQIKVIRKGEVSCCWTCTPCKENEYVFDEYTCKACQLGSWPTDDLTGCDLIPVQYLRWGDPEPIAAVVFACLGLLATLFVTVVFIIYRDTPVVKSSSRELCYIILAGICLGYLCTFCLIAKPKQIYCYLQRIGIGLSPAMSYSALVTKTNRIARILAGSKKKICTKKPRFMSACAQLVIAFILICIQLGIIVALFIMEPPDIMHDYPSIREVYLICNTTNLGVVTPLGYNGLLILSCTFYAFKTRNVPANFNEAKYIAFTMYTTCIIWLAFVPIYFGSNYKIITMCFSVSLSATVALGCMFVPKVYIILAKPERNVRSAFTTSTVVRMHVGDGKSSSAASRSSSLVNLWKRRGSSGETLRYKDRRLAQHKSEIECFTPKGSMGNGGRATMSSSNGKSVTWAQNEKSSRGQHLWQRLSIHINKKENPNQTAVIKPFPKSTESRGLGAGAGAGGSAGGVGATGGAGCAGAGPGGPESPDAGPKALYDVAEAEEHFPAPARPRSPSPISTLSHRAGSASRTDDDVPSLHSEPVARSSSSQGSLMEQISSVVTRFTANISELNSMMLSTAAPSPGVGAPLCSSYLIPKEIQLPTTMTTFAEIQPLPAIEVTGGAQPAAGAQAAGDAARESPAAGPEAAAAKPDLEELVALTPPSPFRDSVDSGSTTPNSPVSESALCIPSSPKYDTLIIRDYTQSSSSL
modifications: SNAP tag labelled with SBG-JF646
  stoichiometry N: 2

Reference: publication doi:10.1101/2025.02.03.636340 (bioRxiv, 2025)
